Over roughly 33,000 sequences, “E-score (-0.5 to 0.5)” has its median near -0.054; the highest 2% begin near 0.39. The list shows a part of the results.
Molecular target: Ylr278c (UniProt Q05854)
Test: PBM E-score (8-mer binding enrichment) (E-score (-0.5 to 0.5)); higher = stronger / more preferred TF binding; most listed sequences are background and not binding sites
Settings: protein concentration: 200 nM; construct: GST-DNA-binding domain
Procedure, shortened: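 Universal all-10-mer Agilent arrays, fresh or stripped once, were converted to double-stranded form by primer extension. GST-tagged yeast transcription factors from PURExpress in vitro transcription/translation, full-length or DNA-binding domain only, were applied at about 100-200 nM and detected with fluorescent anti-GST. After masliner normalisation, the Universal PBM Analysis Suite scored each ungapped eight-base word together with its reverse complement by E-score.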

Sequence | PBM E-score
GGCCGAGA | 0.272
TGCTGGAA | -0.0626
ACCTTGCC | -0.158
ACGCCAAC | -0.116
GGCGTTGA | -0.0134
CAACACAG | -0.243
GTTACTGA | 0.204
AGAACACG | 0.125
AACGCGTA | -0.0626
CCAAGTGC | -0.0885
GACCCGGA | 0.391
GACATGGC | -0.0968
CATACCCG | 0.115
GGAATCAA | 0.0795
ACACGCCC | -0.00341
GAGTACAA | 0.114
ATAGTGAA | -0.0766
CGGACAAC | 0.389
CCCGAGCA | -0.0534
CGAACGGA | 0.312
CACATGAC | -0.257
AATAATGT | -0.0681
AAAAGCTG | -0.239
ACAAACAT | -0.0192
CCAGAGTC | -0.149

Sequence | PBM E-score
GTAACGCA | -0.0544
ACACGGGT | -0.105
ATTCAGTA | -0.0597
ATGTCTTA | -0.314
CCAGCTAA | -0.289
GACCGGCA | 0.258
GTGATGAA | -0.124
ACCTACAC | -0.344
TCCCAAGA | -0.0481
GTAATGCA | -0.189
CGTGTTTA | -0.0255
CGCGGACA | 0.345
CGCTTTAC | 0.0246
AACGGGGA | 0.115
GCCAAGGA | -0.155
GCCTGCGA | -0.145
GCAATTGA | 0.104
TCATCCAA | -0.183
AATGAACT | 0.0841
CTGTTAGC | -0.0068
GCGGGAGA | 0.28
ACTAAATC | 0.148
CAGTATAG | -0.0684
AAAGATGA | -0.132
CACACGGC | 0.254

Sequence | PBM E-score
CAATCACC | 0.0638
AAGATGAC | -0.26
AGATTGAG | -0.0312
GGAAGTGA | 0.104
CGCGCGCC | 0.176
CAAAACGC | 0.174
ATAAGTAC | -0.156
ACAGAGGC | -0.199
CCAAGGCG | -0.0697
ATTAAGGG | -0.142
GACACCGC | 0.178
CCGCAGAC | 0.164
CGTTTTTC | 0.076
TGAGTGCA | -0.0987
AAGAAGGA | -0.167
GAGTCAAC | -0.162
AAGGATAT | 0.00861
AATTAGGA | 0.0501
AATTTTTA | 0.0164
AACACCCG | 0.208
ACACCGCA | 0.233
CCCGCAAG | -0.157
CACTCTTA | -0.226
GACACCTC | 0.093
GCCCGGGC | 0.356

Sequence | PBM E-score
GCGTGTCA | 0.0799
ACTCCAGA | -0.112
CTTGAAAC | 0.196
CTTCGACA | -0.212
AGAACGAT | -0.205
ACTAGTAG | -0.169
ATGCGCAC | -0.0276
CGGAATAC | 0.423
ACACTCTA | -0.0725
ATCGTACA | -0.153
AGGTCTCA | -0.123
CATCCTAG | -0.279
AGGAAGAG | -0.0944
ACCCGTCT | -0.0407
ACGGAGAG | 0.336
TCCTCACA | -0.107
TACTAAAA | 0.0322
GAGAGTGA | -0.165
AAATGTCA | 0.00522
GGGAAACA | 0.0989
CCGAACGA | 0.257
AGCCCGCG | 0.256
AATGTATG | -0.076
ATTTTTTA | 0.114
GATCGCCA | -0.0483

Sequence | PBM E-score
TGTCGGAA | 0.384
CATCCATG | -0.168
GACCGGAA | 0.389
CAAACGAC | 0.00801
AAAGCGTG | -0.0745
AGGGCGAA | -0.00214
CCAGCCCA | -0.134
CCTGAGGC | -0.168
CCACACGC | -0.00547
GACCACGC | -0.0704
TCTCGCCA | -0.0779
CGTGCTAC | -0.141
ACCTGGTC | 0.0533
CAAGTAAA | 0.0501
CGTTGTTC | 0.119
CTGGTAGA | -0.0605
CGGGGTAA | 0.365
CCATCCAA | -0.132
CATTCGGA | 0.339
ACAATTTC | 0.0194
ATCTGCCG | 0.33
GCTTCCGA | 0.29
CTCTGTAA | -0.219
ATATGGTG | -0.172
GACCAGTA | -0.0849

Sequence | PBM E-score
CCAACTTC | -0.111
ACCCCCAG | -0.27
GTGAATTA | -0.0303
CTTAGAGC | -0.0931
AGCTTCCA | 0.0154
ACAGAGGT | -0.333
CGTTGAAC | 0.0582
GGGTGGTA | -0.0396
AGCGATAA | 0.104
ACAGGCCT | -0.163
CGTAACAC | -0.0228
ACACGTAC | -0.197
CAACGGTC | -0.00498
AGAGGCGA | -0.283
AGAGGCAA | -0.0402
GAGCAATC | 0.106
GGAGGCCA | 0.123
ACCTTCTA | -0.186
GCCCCATA | -0.0325
GCTAGGAA | -0.191
CCTACGCG | 0.047
AGTGCTCG | -0.139
CCAACAGA | -0.147
CACCTACC | -0.106
CAGAAAAA | -0.161

Sequence | PBM E-score
AGCGGGGA | 0.206
CGGGTTTA | 0.356
ACACCGCT | 0.00228
CATTCTAG | -0.392
ATCTCGAG | -0.0814
GGGCTAAA | 0.137
CTCGTGAC | -0.14
ACGACCAA | -0.17
GGACCTAC | 0.125
CACAGAGG | -0.233
ACACTTCG | -0.124
CCTGGCCG | -0.0118
AAATTTCT | -0.0984
CCTATGCA | -0.217
GCTTGGAA | -0.112
AGGTAATG | 0.114
AATTTAAA | 0.0714
ATTAAATA | 0.0934
ATACAGGC | -0.16
CCTGCAAC | -0.279
ATTATCAG | -0.0735
AGATGTAC | -0.209

Source: the supplement of paper PMC3334620
